The supplement of paper PMC12067093, “Discovery and optimisation of a covalent ligand for TRIM25 and its application to targeted protein ubiquitination” (Chemical Science, 2025)
The full data set covers some 21,000 targets. This sample favours those with the largest changes.

Compound: CC1Cc2ccccc2N1C(=O)C1CCCN(C1)C(=O)CCl (mixture of isomers) [TRIM25 ligand 11 (diastereomer mixture)]
Experiment: probe-labelled cysteine peptide fold change vs DMSO (competition) (log2 fold change); higher = less target engagement (more negative = stronger competition)
Settings: THP-1, incubation time: 4 h
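Further: competitive chemoproteomic profiling in live THP-1 cells with an iodoacetamide desthiobiotin (IA-DTB) probe, comparing probe-labelled peptide intensities in compound-treated cells against DMSO-treated controls.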

Target	probe-labelled cysteine peptide fold change (10 µM)	probe-labelled cysteine peptide fold change (50 µM)
GNB1_P62873_317_VSCLGVTDDGMAVATGSWDSFLK<|>GNB2_P62879_317_VSCLGVTDDGMAVATGSWDSFLK (UniProt P62879+P62873)	0.028	-0.0309
GLG1_Q92896_385_CNVENLPR (UniProt Q92896)	0.0203	0.0958
GLYR1_Q49A26_356_CYVDMSTVDADTVTELAQVIVSR (UniProt Q49A26)	0.496	0.833
HDDC2_Q7Z4H3_145_QLDQCEMILQASEYEDLEHKPGR (UniProt Q7Z4H3)	-0.122	-0.224
H2AFY_O75367_297_NCLALADDKK (UniProt O75367)	-0.0509	-0.000868
GNE_Q9Y223_520_TPLSDTLHLPVWVDNDGNCAALAER (UniProt Q9Y223)	0.0702	-0.106
HSF1_Q00613_373+378_CLSVACLDK (UniProt Q00613)	-0.0719	-0.31
HEATR3_Q7Z4Q2_171+173_NSIENIANETVNVLWNICECSSR (UniProt Q7Z4Q2)	-0.112	0.755
HNRNPD_Q14103_226_RGFCFITFK (UniProt Q14103)	-0.152	-0.117
HDGF_P51858_12_CGDLVFAK (UniProt P51858)	-0.108	-0.28
HARS_P12081_379_VPCVGLSIGVER (UniProt P12081)	-0.14	0.116
HDAC1_Q13547_12_KVCYYYDGDVGNYYYGQGHPMKPHR (UniProt Q13547)	-0.53	-0.431
HINT3_Q9NQE9_96_HIGNCR (UniProt Q9NQE9)	0.0524	0.0325
HK1_P19367_256_MCINTEWGAFGDDGSLEDIRTEFDR (UniProt P19367)	0.0619	0.177
HMOX2_P30519_282_GALEGSSCPFR (UniProt P30519)	-0.251	-0.941
GEMIN2_O14893_63_RVQIEAAQCPDVVVAQIDPK (UniProt O14893)	-0.176	-0.153
GAK_O14976_1142_ACTQPRPNYASNFSVIGAR (UniProt O14976)	-0.0658	-0.144
GTF3C1_Q12789_1704_LRPAAAPLEELTMGTSCLPDTFTK (UniProt Q12789)	-0.109	-0.35
GRIPAP1_Q4V328_581_DQLEQAQEERDCHLK (UniProt Q4V328)	-0.117	-0.0237
GNB1_P62873_271_ADQELMTYSHDNIICGITSVSFSK (UniProt P62873)	0.0202	0.0391

Target	probe-labelled cysteine peptide fold change (10 µM)	probe-labelled cysteine peptide fold change (50 µM)
GCC2_Q8IWJ2_257_ELMCQIEASAK (UniProt Q8IWJ2)	-0.27	-0.449
GFM1_Q96RP9_153_VLDGAVLVLCAVGGVQCQTMTVNR (UniProt Q96RP9)	-0.637	0.0473
HDHD3_Q9BSH5_243_EHILPSLAHLLPALDCLEGSTPGL (UniProt Q9BSH5)	0.101	-0.0387
HERC1_Q15751_3818_DVLVVNCTAEWAAANHVLATCR (UniProt Q15751)	0.14	0.145
HSPH1_Q92598_245_LVEHFCAEFK (UniProt Q92598)	-0.0153	-0.0589
HELZ_P42694_101_AVLCCMQLK (UniProt P42694)	-0.0684	0.0429
HMGB1P1_B2RPK0_23_MSSYAFFVQTCR<|>HMGB1_P09429_23_MSSYAFFVQTCR<|>HMGB2_P26583_23_MSSYAFFVQTCR (UniProt P26583+P09429+B2RPK0)	-0.212	-0.58
HSD11B1_P28845_241_EECALEIIK (UniProt P28845)	-0.0158	-0.0683
GMFG_O60234_87+96_YVHDDGRVSYPLCFIFSSPVGCKPEQQMMYAGSK (UniProt O60234)	-0.461	-0.539
HSPA9_P38646_608_VEAVNMAEGIIHDTETKMEEFKDQLPADECNK (UniProt P38646)	-1.22	-0.701
GMPR2_Q9P2T1_205_TGVGYPQLSAVMECADAAHGLK (UniProt Q9P2T1)	-0.00564	-0.0221
HSPA4L_O95757_38_CTPACISLGSR (UniProt O95757)	0.129	0.177
GPX1_P07203_78_GLVVLGFPCNQFGHQENAKNEEILNSLK (UniProt P07203)	-0.92	-0.442
GLE1_Q53GS7_39_REDVLEECMSLPK (UniProt Q53GS7)	0.0139	-0.124
HLA-DRB1_P04229_59_CIYNQEESVRFDSDVGEYR (UniProt P04229)	0.137	0.195
GSS_P48637_409_IEPEPFENCLLR (UniProt P48637)	0.0626	0.0486
GNL3_Q9BVP2_251_LLGGFQETCSK (UniProt Q9BVP2)	0.0408	-0.0829
HNRNPDL_O14979_177_FGEVVDCTIKTDPVTGR (UniProt O14979)	-0.7	-0.524
GSR_P00390_278_SFDSMISTNCTEELENAGVEVLK (UniProt P00390)	-0.0284	-0.106
HSD17B4_P51659_455_ELICHNQFSLFLVGSGGFGGK (UniProt P51659)	0.131	0.277
